Broadly, the Kd is the concentration at which binding is half-saturated. Read a high Kd as a looser complex.

Substitutions are numbered along the chain they refer to. Names may count otherwise.

The target in experiment [1] is T1, Activin A (UniProt P08476 311-426).
T1 sequence (looked up): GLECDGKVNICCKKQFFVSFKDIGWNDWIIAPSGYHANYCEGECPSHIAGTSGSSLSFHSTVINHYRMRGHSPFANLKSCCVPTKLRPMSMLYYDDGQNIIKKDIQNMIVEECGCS
In words: cell-based or functional assay.

Experiment [2] deals with T2, Activin B (UniProt P09529 293-407).
T2 sequence (looked up): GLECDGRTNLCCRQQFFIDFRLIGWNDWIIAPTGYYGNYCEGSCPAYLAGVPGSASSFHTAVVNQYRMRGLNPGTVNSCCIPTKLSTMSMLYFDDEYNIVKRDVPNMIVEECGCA
The experiment can be described thus: cell-based or functional assay.

For experiment [3], the target named is T3, growth differentiation factor 11 (GDF-11) (UniProt O95390 299-407).
T3 sequence (looked up): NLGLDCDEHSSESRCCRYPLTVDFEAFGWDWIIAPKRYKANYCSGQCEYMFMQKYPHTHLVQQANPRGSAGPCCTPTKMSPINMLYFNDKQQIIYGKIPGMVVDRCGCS
The experiment can be described thus: cell-based or functional assay.

The target in experiment [4] is T4, BMP-9 (UniProt Q9UK05 320-429).
T4 sequence (looked up): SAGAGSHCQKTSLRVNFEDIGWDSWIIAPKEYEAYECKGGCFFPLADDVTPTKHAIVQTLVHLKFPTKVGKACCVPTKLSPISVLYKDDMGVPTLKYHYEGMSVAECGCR
In words: cell-based or functional assay.

For experiment [5], the target named is T5, BMP-10 (UniProt O95393 317-424).
T5 sequence (looked up): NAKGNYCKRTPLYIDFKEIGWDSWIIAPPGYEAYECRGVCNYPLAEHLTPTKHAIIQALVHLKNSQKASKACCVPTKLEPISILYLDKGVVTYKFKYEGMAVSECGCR
The experiment can be described thus: cell-based or functional assay.

Experiment [6] concerns the target T1, Activin A. In words: SPR (Biacore 3000), Fc fusion captured by anti-human IgG, ligand injected. How it is done: (§1) The GE Biacore 3000 was used to measure the kinetics of the interactions between the ActRII- and chimera-Fc proteins and Activin A/Activin B/growth differentiation factor 11 (GDF-11)/BMP-9/BMP-10. Anti-human capture antibody was immobilized on all four flow cells of a CM4 or CM5 chip using the reagents and protocol in the Biacore Human Antibody Capture Kit (GE Life Sciences). Briefly, anti-human IgG was diluted to 25 μg/mL in immobilization buffer. The carboxylated surface of the sensor was activated by injecting a mixture of EDC and NHS. The anti-human IgG was injected into the activated sensor chip flow cells at 10 mL/min for a total of 7 minutes until the chip had reached an immobilization level of 9000 response units (RU). Ethanolamine was injected to deactivate the sensor surfaces. Flow cell 1 was left empty and served as a reference cell to measure and subtract any nonspecific binding. The ActRII- and chimera-Fc proteins were captured in flow cells 2-4 to a maximum analyte binding response of 100 resonance units. This was done by injecting between 5-10 mL of the ActRII- and chimera-FC proteins into the flow cells at a concentration of 2 μg/mL until 200 RU. Each ligand was run in a duplicate concentration series. The data was analyzed using Scrubber2 by BioLogic Software to calculate the KD of each interaction (Table 6).

Experiment [7] deals with T2, Activin B. The description is as above. How it is done:
as §1

The target of experiment [8] is T3, growth differentiation factor 11 …. Described as above. How it is done: as §1
The target in experiment [9] is T4, BMP-9. The experiment is described as above. How it is done: as §1
For experiment [10], the target named is T5, BMP-10. The description is as above. How it is done:
as §1

B1: Chimera 2 E81Q-Fc (SEQ ID NO: 109) (Fc fusion)
chain: GRGEAETRECIYYNANWELERTNQSGLERCEGEQDKRLHCYASWRNSSGTIEIVKQGCWLDDINCYDRTDCVEKKDSPQVYFCCCEGNMCNEKFSYFPEMEVTQPTSGGG[in this place human IgG1 Fc]
As to B1, the “IC50, inhibition of SBE-Luciferase reporter response (HEK293)” value is 0.0783 µg/mL with Activin A [1], 0.0382 µg/mL with Activin B [2] and 0.0502 µg/mL in experiment [3]. Also, the figures for the “IC50, inhibition of BRE-Luciferase reporter response (C2C12)” value in the experiment with BMP-9 [4] and in the experiment with BMP-10 [5] were 44.2 µg/mL and 0.0067 µg/mL, respectively. Further, the Kd in the experiment with Activin A [6] worked out at 0.042 nM; with Activin B [7], 0.024 nM; in [8], 0.007 nM; with BMP-9 [9], 3.7 nM; with BMP-10 [10], 0.005 nM.

B2: Chimera 2-Fc (SEQ ID NO: 108) (Fc fusion)
chain: B1 chain with Q79E
Regarding B2, the “IC50, inhibition of SBE-Luciferase reporter response (HEK293)” value with Activin A [1] was found to be 0.117 µg/mL; in the experiment with Activin B [2], 0.0218 µg/mL; in experiment [3] it was 0.0548 µg/mL. In addition, the “IC50, inhibition of BRE-Luciferase reporter response (C2C12)” value is 14.2 µg/mL with BMP-9 [4] and 0.0069 µg/mL with BMP-10 [5]. The Kd was determined as 0.296 nM with Activin A [6]; 0.008 nM with Activin B [7]; 0.005 nM in experiment [8]; 0.695 nM with BMP-9 [9]; 0.02 nM with BMP-10 [10].

The values above are taken from patent US20260098078A1 (KEROS THERAPEUTICS, published 2026).
